Test results published in publication PMC4336329 (PLoS ONE, 2015).
Hit rate of the full screen: of about 310,000 compounds, about 2,200 (0.71%) showed an effect of 50% or more. Effects have a minus sign here. This is one part of the list.

Biological target: human ether-à-go-go-related gene (hERG) potassium channel (human, UniProt Q12809)
Assay: primary screen, population patch clamp on CHO cells stably expressing hERG

Chain of human ether-à-go-go-related gene (hERG) potassium channel (Q12809 whole entry, looked up): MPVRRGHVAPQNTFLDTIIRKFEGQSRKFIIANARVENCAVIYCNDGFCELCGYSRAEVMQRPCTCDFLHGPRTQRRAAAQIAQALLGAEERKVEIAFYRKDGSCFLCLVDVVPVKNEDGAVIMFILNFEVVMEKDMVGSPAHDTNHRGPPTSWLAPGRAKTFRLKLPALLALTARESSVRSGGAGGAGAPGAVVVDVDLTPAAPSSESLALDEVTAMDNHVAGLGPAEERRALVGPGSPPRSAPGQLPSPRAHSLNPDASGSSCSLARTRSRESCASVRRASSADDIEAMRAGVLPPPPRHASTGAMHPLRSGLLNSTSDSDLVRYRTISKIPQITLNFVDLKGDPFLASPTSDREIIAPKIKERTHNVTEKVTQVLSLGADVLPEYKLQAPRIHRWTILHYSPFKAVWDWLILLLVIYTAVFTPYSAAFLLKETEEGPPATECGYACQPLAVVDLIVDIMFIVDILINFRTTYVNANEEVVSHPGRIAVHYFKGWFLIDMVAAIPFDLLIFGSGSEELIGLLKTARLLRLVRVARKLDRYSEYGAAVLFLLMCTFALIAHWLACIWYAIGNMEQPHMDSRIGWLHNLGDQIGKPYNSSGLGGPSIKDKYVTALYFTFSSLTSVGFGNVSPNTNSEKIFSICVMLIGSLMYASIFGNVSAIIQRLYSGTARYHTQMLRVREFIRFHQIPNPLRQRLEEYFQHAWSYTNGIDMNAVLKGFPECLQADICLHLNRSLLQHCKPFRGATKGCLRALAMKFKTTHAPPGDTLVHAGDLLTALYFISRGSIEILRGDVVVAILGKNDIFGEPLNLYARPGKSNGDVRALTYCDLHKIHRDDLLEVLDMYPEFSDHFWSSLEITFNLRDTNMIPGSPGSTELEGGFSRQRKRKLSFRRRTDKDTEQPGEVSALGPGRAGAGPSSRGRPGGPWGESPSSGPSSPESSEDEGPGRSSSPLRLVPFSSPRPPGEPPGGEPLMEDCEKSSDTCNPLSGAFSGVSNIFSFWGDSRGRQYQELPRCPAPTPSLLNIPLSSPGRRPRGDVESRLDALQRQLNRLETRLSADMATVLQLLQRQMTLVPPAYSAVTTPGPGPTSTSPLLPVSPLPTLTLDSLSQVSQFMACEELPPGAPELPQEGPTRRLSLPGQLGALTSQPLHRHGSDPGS

| Structure (SMILES) | hERG current change (%, negative = inhibition) at 1uM |
| --- | --- |
| CCCC1=NN(C(=O)Cc2ccc([N+](=O)[O-])cc2)C(O)(C(F)(F)F)C1 (stereo not shown) | 17.2% |
| CCOC(=O)Cc1csc(NC(=S)NC(=O)c2cc(OC)cc(OC)c2)n1 | 8.5% |
| C=CCn1cccc(C(=O)Nc2ccc(C)cc2)c1=O | -0.584% |
| CN1CCN(C(=O)CCc2nc(-c3ccc(Cl)cc3)no2)CC1 | 7.34% |
| O=C(CCC(=O)c1ccc(Br)cc1)Nc1cccc(C(F)(F)F)c1 | 11.8% |
| COc1ccc(-c2nn3c(-c4ccccn4)nnc3s2)cc1OC | 18.3% |
| Cc1cccc(Nc2ncnc3ccccc23)c1.Cl | 8.31% |
| O=C(CN1C(=O)NC2(CCCC2)C1=O)N1CCN(C(=O)c2ccco2)CC1 | 6.64% |
| C/C(=C\C(=O)c1ccccc1)Nc1ccc(O)cc1 | 13% |
| COc1ccc(-c2cc(C(=O)N(C)Cc3ccc(F)cc3)c3ccccc3n2)cc1OC | 19.9% |
| CCOc1ccc(S(=O)(=O)N2CCOCC2)cc1NC(=O)Cc1c(F)cccc1Cl | 12.7% |
| c1ccc2c(CN3CCOCC3)c3ccccc3c(CN3CCOCC3)c2c1 | 17.3% |
| COc1ccc(C(=O)COC(=O)c2ccccn2)cc1OC | 5.63% |
| CCCNC(=O)Cc1c(C)oc2ccccc12 | 7.97% |
| OCC#CCSc1nnc(-c2ccc(Br)cc2)o1 | 5.91% |
| CC(=O)Nc1ccc(NC(=O)C(C)OC(=O)c2ccc(N(C)C)cc2)cc1 (stereo not shown) | 17.4% |
| CCOC(=O)c1ccc(NC(=O)/C=C/c2cccs2)cc1 | 6.07% |
| COc1ccc(-c2nc(C(F)(F)F)c(OC)o2)cc1OC | 14.6% |
| On1nnc2ccc(C(F)(F)F)cc21 | 16.8% |
| CCCCc1cc(=O)oc2cc(C)cc(OCc3nn[nH]n3)c12 | 0.321% |
| O=C(Nc1ccc2oc(-c3ccccc3Cl)nc2c1)c1cncc(Br)c1 | -4.62% |
| Cn1cc(CCC(=O)N2CCCC(C(=O)c3ccc(C(C)(C)C)cc3)C2)cn1 (stereo not shown) | -7.59% |
| O=C(c1c[nH]c2ccc(S(=O)(=O)N3CCC4(CC3)OCCO4)cc2c1=O)N1CCC2(CC1)OCCO2 | 7.15% |
| Cn1c(N)c(C(c2ccccc2)c2c(N)n(C)c(=O)n(C)c2=O)c(=O)n(C)c1=O | 1.37% |
| COc1ccc(N2CCN(Cc3cc(=O)oc4cc(-c5ccccc5)c(O)cc34)CC2)cc1 | 7.08% |
